Source: patent publication US20250297007A1 (published 2025)

Target: T1, TCR Vβ6 (TCRVβ6-5 / TCR Vβ13.1) on human T cells (human)
T1 TCR beta: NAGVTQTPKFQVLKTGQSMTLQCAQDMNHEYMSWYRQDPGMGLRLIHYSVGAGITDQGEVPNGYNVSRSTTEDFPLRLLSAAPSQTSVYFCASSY
Assay: cell-based or functional assay

proliferation of Vβ6 T cells as a proportion of the total CD4+ T cell population (human PBMCs, 5 days), EC50: 12 nM
proliferation of Vβ6 T cells as a proportion of the total CD8+ T cell population (human PBMCs, 5 days), EC50: 6 nM
B1: BKM0186 (other)
heavy: QVQLVQSGAEVKKPGSSVKVSCKASGHDFRLTYIHWVRQAPGQGLEWMGRVSAGSGNVKYNEKFKGRVTITADTSTSTAYMELSSLRSEDTAVYYCAVSYYSYDVLDYWGQGTTVTVSSASTKGPSVFPLAPSSKSTSGGTAALGCLVKDYFPEPVTVSWNSGALTSGVHTFPAVLQSSGLYSLSSVVTVPSSSLGTQTYICNVNHKPSNTKVDKRVEPKSCDKTHTCPPCPAPELLGGPSVFLFPPKPKDTLMISRTPEVTCVVVDVSHEDPEVKFNWYVDGVEVHNAKTKPREEQYASTYRVVSVLTVLHQDWLNGKEYKCKVSNKALPAPIEKTISKAKGQPREPQVCTLPPSREEMTKNQVSLSCAVKGFYPSDIAVEWESNGQPENNYKTTPPVLDSDGSFFLVSKLTVDKSRWQQGNVFSCSVMHEALHNHYTQKSLSLSPGK
chain: [about 150 residues not shown]GGGGSGGGGS[human IgG1 Fc with changes not shown]
light: DIQMTQSPSFLSASVGDRVTITCKASQNVADRVVWHQQKPGKAPKALIYSSSHRYKGVPSRFSGSGSGTEFTLTISSLQPEDFATYFCQQFKSYPLTFGQGTKLEIKRTVAAPSVFIFPPSDEQLKSGTASVVCLLNNFYPREAKVQWKVDNALQSGNSQESVTEQDSKDSTYSLSSTLTLSKADYEKHKVYACEVTHQGLSSPVTKSFNRGEC
